# Experimental data as given in a collection of fitness landscapes (doi:10.1016/j.celrep.2020.107928).
# In all, about 81,000 sequences were measured (“one-hybrid fitness for binding NBS DNA”: median about -0.1, highest 2% from about 0.36 on). Some of the results follow.
# B1: Caulobacter ParB omega fusion; a variant is named by its letters at X, in order, B8GW30 (parent)
# chain: MESVVVGEPGMSEGRRGLGRGLSALLGEVDAAPAQAPGEQLGGSREAPIEILQRNPDQPRRTFREEDLEDLSNSIREKGVLQPILVRPSPDTAGEYQIVAGERAWRAAQRAGLKTVPIMVRELDDLAVLEIGIIENVQRADLNVLEEALSYKVLMEKFERTQENIAQTIGKSXSHVANXMRLLXLPDEVQSYLVSGELTAXHARAIAAAADPVALAKQIIEGGLSVRETEALARKAPNLSAGKSKGGRPPRVKDTDTQALESDLSSVLGLDVSIDHRGSTGTLTITYATLEQLDDLCNRLTRGI
# Variants of: B1
# Assay: one-hybrid fitness for binding NBS DNA (the Noc-binding site; scaled: cognate 1, non-cognate 0); higher = stronger binding
# Settings: with NBS DNA site
# Method in brief: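 Fitness here means the log change in variant-to-wild-type read ratio between plasmids sequenced before and after selection. That scale was set so cognate equals 1 and non-cognate equals 0. The selection was a bacterial one-hybrid screen of Caulobacter ParB libraries, four specificity codons randomised, in E. coli USO carrying a HIS3 reporter with the site 19 bp from the promoter, grown 48 hours at 37°C on M9-minus-histidine with 0.1 mM IPTG and 5 mM 3-AT.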
row,Variant,one-hybrid fitness for binding NBS DNA
1,PHRA,≤ 0.2
2,RPRM,≤ 0.2
3,CSYR,≤ 0.2
4,LTAC,≤ 0.2
5,ALTE,≤ 0.2
6,NYVR,≤ 0.2
7,EPKA,≤ 0.2
8,QERP,≤ 0.2
9,WSTT,≤ 0.2
10,VSRS,≤ 0.2
11,LYAK,≤ 0.2
12,VLDI,≤ 0.2
13,SKRL,≤ 0.2
14,FKAW,≤ 0.2
15,ALVW,≤ 0.2
16,SGIS,≤ 0.2
17,GKER,≤ 0.2
18,STPV,≤ 0.2
19,INMS,≤ 0.2
20,RIRS,0.56
21,HNPR,≤ 0.2

row,Variant,one-hybrid fitness for binding NBS DNA
1,PDKP,≤ 0.2
2,REEM,≤ 0.2
3,QAWS,0.216
4,EMST,≤ 0.2
5,FGRV,≤ 0.2
6,CLDA,≤ 0.2
7,DLIA,≤ 0.2
8,HTGE,≤ 0.2
9,TPTL,≤ 0.2
10,HYKR,≤ 0.2
11,VETT,≤ 0.2
12,LRHG,≤ 0.2
13,DKER,≤ 0.2
14,VKGS,≤ 0.2
15,HFTP,≤ 0.2
16,RNAT,≤ 0.2
17,KLAD,≤ 0.2
18,RLRT,0.657
19,HPNC,≤ 0.2
20,ACVH,≤ 0.2
21,ENEG,≤ 0.2

row,Variant,one-hybrid fitness for binding NBS DNA
1,TLRK,≤ 0.2
2,ESTL,≤ 0.2
3,QDAQ,≤ 0.2
4,RHDD,≤ 0.2
5,YKNF,≤ 0.2
6,TSEH,≤ 0.2
7,RMQQ,≤ 0.2
8,HHRS,≤ 0.2
9,NDGS,≤ 0.2
10,NWAF,≤ 0.2
11,MWCC,≤ 0.2
12,DTKR,0.321
13,TVMK,≤ 0.2
14,TGCV,≤ 0.2
15,TWHR,≤ 0.2
16,ILLI,≤ 0.2
17,TCRK,≤ 0.2
18,GFTI,≤ 0.2
19,RLRW,≤ 0.2
20,IDRG,≤ 0.2
21,RHTK,≤ 0.2

row,Variant,one-hybrid fitness for binding NBS DNA
1,KMKI,≤ 0.2
2,GVAN,≤ 0.2
3,NYHF,≤ 0.2
4,HGAM,≤ 0.2
5,RSPG,≤ 0.2
6,RSTD,≤ 0.2
7,RKKY,0.38
8,ESED,≤ 0.2
9,HPSK,≤ 0.2
10,RYNY,≤ 0.2
11,SWAC,≤ 0.2
12,NRNI,≤ 0.2
13,ERTT,≤ 0.2
14,RRCG,0.296
15,MMCS,≤ 0.2
16,IVET,≤ 0.2
17,YDYR,≤ 0.2
18,NSHT,≤ 0.2
19,CGHS,≤ 0.2
20,NVHF,≤ 0.2
21,AVHP,≤ 0.2
